# Assay results taken from article PMC4336329 (PLoS ONE, 2015).
# Out of some 310,000 compounds screened, about 14,000 (4.5%) showed an effect of 50% or more. Effects have a minus sign here. This is one part of the list.
# Molecular target: human ether-à-go-go-related gene (hERG) potassium channel (human, UniProt Q12809)
# Assay: primary screen, population patch clamp on CHO cells stably expressing hERG
# 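Note: peak tail current of the secondary pulse compared with the same well before compound.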
# Chain of human ether-à-go-go-related gene (hERG) potassium channel (Q12809 whole entry, looked up): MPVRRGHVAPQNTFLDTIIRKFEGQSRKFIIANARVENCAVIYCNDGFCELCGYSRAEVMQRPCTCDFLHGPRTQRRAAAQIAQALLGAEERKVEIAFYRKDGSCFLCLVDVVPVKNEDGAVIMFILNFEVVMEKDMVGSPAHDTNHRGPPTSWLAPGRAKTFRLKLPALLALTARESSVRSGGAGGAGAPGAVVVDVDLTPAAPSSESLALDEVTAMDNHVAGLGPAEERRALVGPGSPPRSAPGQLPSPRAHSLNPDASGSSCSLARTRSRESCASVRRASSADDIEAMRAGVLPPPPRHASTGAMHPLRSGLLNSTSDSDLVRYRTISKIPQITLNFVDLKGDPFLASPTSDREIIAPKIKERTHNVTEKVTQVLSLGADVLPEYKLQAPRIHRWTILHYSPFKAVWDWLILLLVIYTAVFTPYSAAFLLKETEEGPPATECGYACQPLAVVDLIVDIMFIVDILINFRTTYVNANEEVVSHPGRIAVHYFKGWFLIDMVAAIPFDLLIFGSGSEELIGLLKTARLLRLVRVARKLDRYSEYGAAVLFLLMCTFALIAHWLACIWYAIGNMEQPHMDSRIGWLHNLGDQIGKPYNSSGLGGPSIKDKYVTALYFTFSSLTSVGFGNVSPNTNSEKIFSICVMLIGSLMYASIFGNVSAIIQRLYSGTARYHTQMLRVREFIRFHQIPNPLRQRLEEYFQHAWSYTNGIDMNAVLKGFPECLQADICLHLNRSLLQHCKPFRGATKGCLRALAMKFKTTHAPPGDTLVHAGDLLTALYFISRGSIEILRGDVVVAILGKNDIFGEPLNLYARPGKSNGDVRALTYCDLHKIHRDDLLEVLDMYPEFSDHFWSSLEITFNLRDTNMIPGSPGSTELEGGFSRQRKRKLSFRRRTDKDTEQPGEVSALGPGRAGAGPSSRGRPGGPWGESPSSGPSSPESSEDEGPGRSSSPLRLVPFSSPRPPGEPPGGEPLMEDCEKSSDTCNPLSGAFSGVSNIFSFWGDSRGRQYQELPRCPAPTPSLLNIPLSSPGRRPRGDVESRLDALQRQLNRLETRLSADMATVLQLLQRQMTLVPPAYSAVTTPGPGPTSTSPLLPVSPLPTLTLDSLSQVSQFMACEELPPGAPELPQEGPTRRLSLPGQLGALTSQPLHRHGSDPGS
row,SMILES,"hERG current change (%, negative = inhibition) at 10uM [%]"
1,CCN(CC(O)CON=C1c2ccccc2-c2ccccc21)S(=O)(=O)c1ccc(C)cc1 (centres unmarked),-2.86
2,Brc1ccc(C2C3=C(Nc4ncnn42)c2ccccc2OC3c2ccncc2)cc1 (centres unmarked),-32
3,O=C(/C=C/Nc1ccccc1Oc1ccccc1)c1ccco1,21.9
4,CCCCCC1CC1C(=O)N/N=C/c1ccc(N(C)C)cc1 (centres unmarked),-3.17
5,NC(=O)COC(=O)c1ccc(Cl)c(S(=O)(=O)N2CCCCCC2)c1,-4.36
6,C=CCNC(=O)C1CC2c3ccccc3C1c1ccccc12 (centres unmarked),10.6
7,CCC(NC(=O)CCl)c1ccc(C)cc1 (centres unmarked),15.3
8,CCC(=O)Nc1ccc(C(=O)c2ccccc2)cc1,-9.96
9,CC(C(=O)O)n1nc(-c2ccccc2)c2ccccc21 (centres unmarked),-2.62
10,C=CCOC(=O)C1=C(C)NC(=O)NC1c1ccc2c(c1)OCO2 (centres unmarked),-11.9
11,Cc1ccc(C(=O)Nc2c3c(nn2C(C)(C)C)CS(=O)(=O)C3)cc1[N+](=O)[O-],10.7
12,CC(=O)N1N=C2C3CCN(CC3)C2C1c1ccccc1 (centres unmarked),17
13,CS(=O)(=O)O.c1ccc(-c2ccc3c(c2)c2c4n3CCN=C4CCC2)cc1,-61.5
14,CCOc1ccc(NC(=O)CCNS(=O)(=O)c2ccc3c(c2)c(=O)n(C)c(=O)n3C)cc1,17.2
15,Cc1ccc(S(=O)(=O)NCC(=O)N2CCOCCOCCOCC2)cc1,1.35
16,CCc1ccccc1NC(=O)C1CCCC1,12.5
17,COc1ccc(CCc2nnc(CCC(=O)NCc3ccc4ncccc4c3)o2)cc1,-1.73
18,NC(=O)c1ccccc1OCC(=O)N1CCCc2ccccc21,14.5
19,CCOc1cc(/C=C2/SC(=Nc3ccccc3)N(Cc3cccnc3)C2=O)ccc1OCC#N,7.86
20,O=C(Cn1cnc2ccccc2c1=O)NC1CCS(=O)(=O)C1 (centres unmarked),8.42
21,COc1ccccc1CNC(=O)CN(C)Cc1ccc(SC)cc1,-50.8
22,Cc1ccc2c(c1)C=CC(C)N2C(=O)c1ccccc1 (centres unmarked),-7.62
23,CC1C(c2ccccc2)=[N+]([O-])C2(CCCCC2)N1O (centres unmarked),9.34

row,SMILES,"hERG current change (%, negative = inhibition) at 10uM [%]"
1,COC(=O)c1cc(C(=O)OCC(=O)NNC(=O)c2cccs2)cc([N+](=O)[O-])c1,-10.9
2,NC(=O)C1=C[C@@H](c2ccc3c(c2)OCO3)C[C@@H](OCCCCO)O1,2.96
3,COc1ccc(NC(=O)Nc2cccc3ccccc23)cc1OC,10.4
4,O=C(COc1ccccc1-c1ccccc1)N/N=C/c1cccnc1,-52.8
5,CC(C)Cn1c(N)c(C(=O)COC(=O)c2cccc(Cl)c2)c(=O)n(C)c1=O,-6.08
6,COCC(C)NC(=O)Cc1ccc(F)cc1 (centres unmarked),22.6
7,CCCN1Cc2cccc(C(=O)NC(C)c3cccs3)c2C1=O (centres unmarked),-12.7
8,Cc1ccccc1OC(C)c1nc(-c2ccccc2)no1 (centres unmarked),0.522
9,CCN1CCN(S(=O)(=O)c2ccc(Cl)c(C(=O)N(C)Cc3cccc(Cl)c3Cl)c2)CC1,-61.3
10,Cc1nn(-c2ccccc2)c(C)c1/C=N/NC(=O)c1cccs1,-24.9
11,CC(=O)N1c2ccc(S(=O)(=O)N3CCCC(C(=O)NCc4ccccc4)C3)cc2CC1C (centres unmarked),13.7
12,C(=N\n1cnnc1)/c1cccn1-c1ccccc1,-17.5
13,O=C(/C=C/c1cccc([N+](=O)[O-])c1)N1CCN(c2ccccn2)CC1,-41.2
14,COC(=O)C1=CN(c2ccc(Cl)cc2)C=C(C(=O)OC)C1c1ccc([N+](=O)[O-])cc1,16.2
15,COc1cccc(C(=O)NNC(=O)C(=O)N2CCCCC2)c1,23.6
16,CC(=O)c1sc(NC(=O)CN2C(=O)NC3(CCCC3)C2=O)nc1-c1ccccc1,-1.43
17,CCCC(=O)Oc1c(S(=O)(=O)c2ccc(C)cc2)c(C)nn1C(C)(C)C,-4.08
18,COc1ccc(OC)c(/C=C/C(=O)N2C(=O)c3cccc(N)c3C2=O)c1,6.52
19,COc1ccc(-n2c(C)cc(C(=O)CSc3ccc(NC(C)=O)cc3)c2C)cc1,16.1
20,CC1CCCC(C)N1C(=O)CSc1nc2ccccc2s1 (centres unmarked),-13.3
21,Cn1c(=O)oc2cc(S(=O)(=O)N3CCC(N4CCCCC4)CC3)ccc21,3.47
22,CCOCc1cnc(C)nc1NCC(=O)c1c(C)[nH]c2ccccc12,8.49
23,CC(C)C(O)(c1ccccc1)C(CN1CCOCC1)c1ccccc1.Cl (centres unmarked),-1.52

row,SMILES,"hERG current change (%, negative = inhibition) at 10uM [%]"
1,CCOC(=O)c1ccccc1NC(=O)COC(=O)C(CC(C)C)NC(N)=O (centres unmarked),4.62
2,Cc1cc(Cl)ccc1NC(=S)NCCN1CCOCC1,-0.212
3,O=C(NCc1cccnc1)c1ccc(COc2ccc(Cl)cc2Cl)o1,-18.1
4,COc1cc(CO)ccc1OCC(=O)Nc1ccc(Br)cc1,-11.2
5,COc1ccc(Cl)cc1C(=O)NNC(=S)NC1CCCCC1,20.2
6,C[N+]1(C)C2CCC1CC(OC(=O)c1ccccc1)C2.[Br-] (centres unmarked),5.57
7,COc1ccc(/C=C/C(=O)Nc2cc(C)on2)cc1,4.72
8,O=C(CSc1ccc(Br)cc1)Nc1ccccc1N1CCOCC1,-2.27
9,Cc1occc1C(=O)Nc1cccc([N+](=O)[O-])c1C,-3.3
10,CCNC(=O)CC1S/C(=N/N=C(\C)c2ccccc2)NC1=O (centres unmarked),-1.63
11,CCOc1cc(S(=O)(=O)NCc2cccnc2)c(C)cc1C,9.71
12,O=C(c1ccccc1)C(O)(Cc1ccccc1)c1ccccc1 (centres unmarked),0.054
13,O=C(c1ccncc1)N1CCCC(N2CCN(c3ccc(F)cc3)CC2)C1 (centres unmarked),-44.6
14,O=C(COc1ccc(Cl)cc1)N(Cc1ccc(F)cc1)C1CCS(=O)(=O)C1 (centres unmarked),-63.3
15,Cc1ccc(-c2csc(NC(=O)CCNC(=O)c3ccc(Cl)cc3)n2)cc1,14.5
16,S=c1nc(NCCc2ccccc2Cl)c2ccccc2[nH]1,20
17,CC(C(=O)NCc1ccccc1)N1C(=O)C2CC=C(Cl)CC2C1=O (centres unmarked),2.89
18,O=C1c2ccccc2C(=O)N1CCSc1ncn[nH]1,19.7
19,CC1(C)Cc2cccc(OCC(=O)Nc3ccccc3N3CCOCC3)c2O1,-10.8
20,CCc1cccc(NC(=O)Cn2c(=O)oc3cc(S(=O)(=O)N4CCOCC4)ccc32)c1,17.4
21,CCn1c(SCC(=O)NC2CCS(=O)(=O)C2)nnc1-c1ccccc1 (centres unmarked),5.49
22,COC1=NS(=O)(=O)c2ccccc21,7.18
23,CCc1[nH]nc(C(=O)N2CCCC(Nc3ccc(C(C)C)cc3)C2)c1C (centres unmarked),3.25

row,SMILES,"hERG current change (%, negative = inhibition) at 10uM [%]"
1,CC(C)NC(=O)COc1ccc(S(=O)(=O)N2CCCC2)cc1,15.8
2,COCCOC(=O)C1=C(C)NC(=O)NC1/C=C/c1ccccc1 (centres unmarked),-5.86
3,CCOC(=O)[C@@H]1[C@H]2COc3cc(OC)ccc3[C@@H]2N2C(=O)N(c3ccc(C(F)(F)F)cc3)C(=O)[C@]12C,15.1
4,O=C(NNS(=O)(=O)c1ccc(F)cc1)c1ccc(O)cc1,9.17
5,COc1ccc(NC(=O)CN(C)CC(=O)Nc2cccc(F)c2)cc1Cl,-28.9
6,Cc1nn(-c2ccc(F)cc2)c(Cl)c1/C=C1\C(=O)Nc2ccccc21,5.24
7,O=C(OC(C(=O)NCc1cccs1)c1ccccc1Cl)c1ccco1 (centres unmarked),-23.6
8,COc1ccc(N2C(=O)CCC(C(=O)N3CCN(c4ccccn4)CC3)C2c2ccc(F)cc2)cc1 (centres unmarked),-48.2
9,COc1ccc(CNC(=O)C2CCCN2S(=O)(=O)c2ccc(S(=O)(=O)N(C)C)cc2)cc1 (centres unmarked),-10.7
10,Cc1nnc(NC(=O)c2ccc3c(c2)OCO3)s1,20.3
11,CCn1c(N)c(C(=O)N2CCOCC2)sc1=S,11.4
12,Cc1cccc(C)c1OCC(=O)NCc1ccccc1,-1.24
13,COc1cc(C(=O)NCC(=O)N/N=C/c2ccc(-c3cccc([N+](=O)[O-])c3)o2)cc(OC)c1OC,-2.18
14,CC1CCCCC1NC(=O)C1Cc2ccccc2CN1S(C)(=O)=O (centres unmarked),2.98
15,COc1ccccc1C(=O)NC(=O)COC(=O)CCOc1cc(C)ccc1C,1.93
16,S=c1nc(-c2ccccc2)c(-c2ccccc2)n[nH]1,19.6
17,COc1ccc(-c2nc(C#N)c(N3CCCCCC3)o2)cc1,-23.3
18,COC(=O)c1ccc(COC(=O)[C@@H]2CC(O)CN2S(=O)(=O)c2ccccc2[N+](=O)[O-])cc1 (some centres unmarked),-10.2
19,CCn1c(SCC(=O)N2c3ccccc3Sc3ccccc32)nc2c1c(=O)n(C)c(=O)n2C,-8.47
20,O=C(Nc1ccc(OC(F)(F)F)cc1)c1cnccn1,-14.5
